Laboratory results reported in PubChem BioAssay AID1466 (National Center for Advancing Translational Sciences (NCATS), 2008).
Screen size: about 200,000 compounds; about 10 (0.005%) were called active. The inconclusive results got no clear call from the source; some entries with a clear call stand among them for comparison. The call rests on the fitted dose curve; in most records, active means well fitted inhibition curve with a large enough effect; inconclusive means small, poorly fitted or top-dose-only effect, or effect the other way, or another doubt; inactive means no such curve, though single readings can be large or run the other way. Potencies of inconclusive entries are left out as doubtful fits.

target: Lysosomal alpha-glucosidase (Homo sapiens) (UniProt P10253); assay: qHTS Assay for Inhibitors of Human alpha-Glucosidase as a Potential Chaperone Treatment of Pompe Disease; details: purified human GAA, 4-MU-alpha-glucoside fluorescence; activity change, negative = inhibition: at 76.9 µM (top of the series) unless noted;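 on activity change, negative = inhibition: plate controls were uninhibited enzyme wells for no effect and no-enzyme background for full effect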
Procedure, shortened: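 Enzyme (4 nM final) mixed with compound (up to 77 uM), then 4-MU-alpha-D-pyranoside (400 uM final) added; 20 min at room temperature, pH 5.0. Reaction stopped at pH 10, fluorescence read, AC50 derived by Hill fit.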
Potency means the concentration at half of the fitted maximal effect; tags describe the fitted curve by direction and shape.

| SMILES | activity change, negative = inhibition | Potency |
| --- | --- | --- |
| O=C(NN1C(=O)C2CC=C(Cl)CC2C1=O)c1ccncc1 (stereo not given) | inconclusive: 15.3% [activator] |  |
| CC(=O)Nc1nc(-c2ccccc2)nc(-c2ccccc2OC(C)=O)n1 |  | inconclusive [inhibitor, full curve, poor fit] |
| CCOC(=O)c1sc2nc(CSc3ccccc3)nc(N3CCCN(C)CC3)c2c1C | inconclusive: -18.4% [inhibitor] |  |
| CC(=C/c1ccccc1)/C=N/Nc1nc(N2CCOCC2)nc(N2CCOCC2)n1 |  | inconclusive [inhibitor, full curve, poor fit] |
| Cn1c(=O)c2c(nc(N/N=C/c3ccc(OC(=O)c4ccco4)cc3)n2Cc2ccccc2)n(C)c1=O |  | inconclusive [inhibitor, single point] |
| CC(C)(C)NC(=O)NC(=O)COC(=O)c1cccc(NS(=O)(=O)c2ccc(F)c(F)c2)c1 |  | inconclusive [inhibitor, partial curve, poor fit] |
| COc1ccc(C2C3=C(CCCC3=O)Nc3nc(SCc4ccccc4)nn32)cc1OC (stereo not given) |  | inconclusive [activator, partial curve] |
| CN(c1ccc(C(=O)Nc2ccccn2)cc1)S(=O)(=O)c1ccccc1 |  | inconclusive [inhibitor, single point] |
| COc1ccc(CCC(=O)N2CCN(S(=O)(=O)c3ccc4ccccc4c3)CC2)cc1 |  | inconclusive [inhibitor, partial curve, poor fit] |
| Cn1c(CSc2nnc(SCc3ccccc3)s2)nc2ccccc21 |  | inconclusive [inhibitor, single point] |
| CCOc1cc(CNc2ccc(N3CCN(C(C)=O)CC3)cc2)cc(Br)c1OC |  | inactive |
| Cc1cccc(NC(=S)NC2CC3CCCC(C2)N3Cc2ccccc2)c1C (stereo not given) | inconclusive: 10.6% [activator] |  |
| Cc1nn(-c2ccccc2)c2sc(-c3n[nH]c(=S)o3)cc12 |  | inconclusive [activator, partial curve] |
| CCOC(=O)c1c(-c2ccccc2)csc1NC(=O)c1ccc(S(=O)(=O)N2CC(C)OC(C)C2)cc1 (stereo not given) |  | inconclusive [inhibitor, single point] |
| CCN(CC)c1ccc(/C=C2\C(=O)c3ccc(C(=O)O)cc3C2=O)cc1 |  | inconclusive [inhibitor, single point] |
| CC1CC(C)CN(S(=O)(=O)c2ccc(C(=O)NCc3ccc4c(c3)OCO4)cc2)C1 (stereo not given) | inconclusive: -17.1% [inhibitor] |  |
| CCOc1ccccc1NC(=O)C1C2CCC3C(CCC21)C3(Cl)Cl (stereo not given) |  | inconclusive [inhibitor, partial curve, poor fit] |
| Cc1ccc(CNC(=O)CSc2nc3ccccc3c(=O)n2CCCO)cc1 |  | inconclusive [inhibitor, partial curve] |
| CCOC(=O)c1c(C)nc(C)c(C(=O)OCC)c1-c1ccc(O)c(OC)c1 |  | inconclusive [inhibitor, single point] |
| COc1cccc(/C=N/N2CCN(c3ccccc3OC)CC2)c1 |  | inconclusive [inhibitor, full curve] |

| SMILES | activity change, negative = inhibition | Potency |
| --- | --- | --- |
| O=C(NCc1ccco1)C1CCCN(S(=O)(=O)c2ccc(-n3cnnn3)cc2)C1 (stereo not given) |  | inconclusive [inhibitor, partial curve, poor fit] |
| COc1ccc(N2CCN(C(=O)C3CCN(S(=O)(=O)c4ccccc4)CC3)CC2)cc1 | inconclusive: 8.28% [activator] |  |
| Cc1oc(-c2cc(F)ccc2F)nc1CN(C)Cc1ccc2nccnc2c1 | inconclusive: 19.8% [activator] |  |
| Cc1ccc2nc(-c3ccc(NS(=O)(=O)c4ccc(F)c(F)c4)cc3)sc2c1 |  | inconclusive [activator, partial curve] |
| CCOC(=O)N1CCC(C(N)=O)CC1 |  | inconclusive [inhibitor, full curve, poor fit] |
| CCNC(=O)CSc1nnc(-c2cccs2)o1 |  | inconclusive [inhibitor, single point] |
| CNc1nc(OCCNC(=O)Nc2ccccc2)nc(N2CCOCC2)n1 |  | inconclusive [inhibitor, partial curve, poor fit] |
| CCOC(=O)C(=CNc1cc(C)nn1C(C)(C)C)C(=O)OCC |  | inconclusive [inhibitor, single point] |
| COC(=O)/C(=N/Nc1ccccc1Cl)Sc1nnc(C(O)c2ccccc2)n1-c1ccccc1 (stereo not given) |  | inconclusive [inhibitor, single point] |
| NC(=S)N/N=C\c1c2ccccc2cc2ccccc12 |  | inconclusive [inhibitor, single point] |
| C/C(=N/NC(=O)c1ccc(O)cc1)c1cccc([N+](=O)[O-])c1 |  | inconclusive [inhibitor, single point] |
| O=C(NNc1nc2c(F)cc(F)cc2s1)C1=COCCO1 |  | inactive |
| C1CCCCCC2(CCCCC1)OCC(CN1CCOCC1)O2 (stereo not given) |  | inconclusive [inhibitor, single point] |
| CCCCn1c(CNC(=O)C23CC4CC(CC(C4)C2)C3)nnc1SCC(=O)Nc1nnc(C)s1 |  | inconclusive [inhibitor, partial curve] |
| FC(F)(F)c1ccccc1C1C2=C(Nc3ncnn31)c1ccccc1CCC2 (stereo not given) | inconclusive: -18.2% [inhibitor] |  |
| O=S(=O)(c1cc(Cl)ccc1Cl)n1cccn1 |  | inconclusive [inhibitor, full curve] |
| COc1ccc(CCN2C(=O)c3[nH]nc(-c4ccccc4O)c3C2c2cccc(Cl)c2)cc1 (stereo not given) |  | inconclusive [inhibitor, single point] |
| CC(C)Oc1ccc(CSC(=N)N)cc1 |  | inconclusive [inhibitor, single point] |
| COc1ccc(CN(C)CC(=O)Nc2cccc(S(N)(=O)=O)c2)c(OC)c1OC | inconclusive: 11.3% [activator] |  |
| O=C(N/N=C\c1cc(Br)c(Br)o1)C1COc2ccccc2O1 (stereo not given) |  | inconclusive [inhibitor, single point] |
